# Out of some 310,000 compounds screened, about 2,200 (0.71%) showed an effect of 50% or more. The effect is printed as a negative number. Some of the results follow.
# Biological target: human ether-à-go-go-related gene (hERG) potassium channel (human, UniProt Q12809)
# Assay: primary screen, population patch clamp on CHO cells stably expressing hERG
# Sequence of human ether-à-go-go-related gene (hERG) potassium channel (Q12809 whole entry, looked up): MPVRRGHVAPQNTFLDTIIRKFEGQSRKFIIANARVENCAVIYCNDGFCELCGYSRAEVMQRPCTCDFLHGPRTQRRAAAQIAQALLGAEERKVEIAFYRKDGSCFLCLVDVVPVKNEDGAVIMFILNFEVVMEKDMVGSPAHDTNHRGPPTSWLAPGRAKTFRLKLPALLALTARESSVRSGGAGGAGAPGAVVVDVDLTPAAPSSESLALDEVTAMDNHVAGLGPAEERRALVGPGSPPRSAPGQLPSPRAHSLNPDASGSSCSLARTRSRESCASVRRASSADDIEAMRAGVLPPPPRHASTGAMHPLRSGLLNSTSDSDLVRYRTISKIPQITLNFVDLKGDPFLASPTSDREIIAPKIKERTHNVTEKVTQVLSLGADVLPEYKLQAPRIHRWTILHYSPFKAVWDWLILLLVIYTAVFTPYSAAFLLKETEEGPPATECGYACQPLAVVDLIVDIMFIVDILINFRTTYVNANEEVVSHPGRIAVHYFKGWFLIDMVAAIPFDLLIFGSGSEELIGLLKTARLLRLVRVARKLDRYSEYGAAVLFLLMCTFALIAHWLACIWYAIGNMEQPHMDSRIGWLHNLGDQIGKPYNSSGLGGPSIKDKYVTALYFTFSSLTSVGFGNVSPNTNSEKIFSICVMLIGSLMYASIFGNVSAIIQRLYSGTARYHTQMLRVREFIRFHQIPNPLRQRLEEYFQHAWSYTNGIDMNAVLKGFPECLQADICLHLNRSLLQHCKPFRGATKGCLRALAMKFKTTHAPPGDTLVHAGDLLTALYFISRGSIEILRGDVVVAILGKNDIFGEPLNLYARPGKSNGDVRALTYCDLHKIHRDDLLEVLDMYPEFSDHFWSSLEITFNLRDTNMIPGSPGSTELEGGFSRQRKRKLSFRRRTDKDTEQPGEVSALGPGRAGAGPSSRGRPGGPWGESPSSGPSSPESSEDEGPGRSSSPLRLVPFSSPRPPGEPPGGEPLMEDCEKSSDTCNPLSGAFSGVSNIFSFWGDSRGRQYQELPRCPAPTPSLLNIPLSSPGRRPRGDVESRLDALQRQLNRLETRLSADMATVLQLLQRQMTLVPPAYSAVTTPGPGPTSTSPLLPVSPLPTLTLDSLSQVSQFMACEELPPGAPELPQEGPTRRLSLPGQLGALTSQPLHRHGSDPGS
row,SMILES,"hERG current change (%, negative = inhibition) at 1uM"
1,COC(=O)c1ccc(CN2C(=O)NC3(CCC(C)CC3)C2=O)o1 (stereo not drawn),6.48%
2,CC1(C)CC(N2CCCCC2)=CC(=[N+]2CCCCC2)C1.[I-],6.32%
3,CNC(=O)NC(=O)C(C)OC(=O)c1ccc(Cl)c(S(=O)(=O)Nc2ccc(F)cc2)c1 (stereo not drawn),13.4%
4,CCc1ccc(C(=O)OCC(=O)N(CC)c2c(N)n(Cc3ccccc3)c(=O)[nH]c2=O)cc1,12%
5,CCN(CC)c1ccc(C(=O)N/N=C/c2ccc(N3CCOCC3)cc2)cc1,4.02%
6,Cc1cccc(C(=O)Nc2ccc(O)cc2)c1,14.9%
7,Nc1nc(SC23CC4CC(CC(C4)C2)C3)ns1,9.35%
8,O=S(=O)(Nc1ccc(Cc2ccncc2)cc1)c1ccc(Br)s1,4.64%
9,[O-][n+]1ccccc1SC/C=C/c1ccccc1,3.73%
10,COc1ccc(-n2c(SCC(=O)N(C)c3ccccc3)nc3c([nH]c4ccccc43)c2=O)cc1OC,13.6%
11,CCOc1cccc(CNCc2ccc(C(=O)O)cc2)c1.Cl,13.6%
12,COc1cc(Cl)c(C)cc1NC(=O)CN1CCCCCC1,9.06%
13,COCCOC(=O)c1c(C)oc2ccc(O)c(CN3CCC(C)CC3)c12,-5.9%
14,CCOC(=O)C(CC(C)C)CP(=O)(O)CNC(=O)OCc1ccccc1 (stereo not drawn),7.23%
15,CCN(C(=O)COC(=O)c1cc([N+](=O)[O-])ccc1N1CCCCC1)C1CCS(=O)(=O)C1 (stereo not drawn),11.5%
16,Cl.ClCCN1CCN(c2ccnc3cc(Cl)ccc23)CC1,7.03%
17,CCN1CCN(C(=O)c2cc3c(s2)-c2c(C)cccc2OC3)CC1,8.01%
18,O=C(NCc1ccc2c(c1)OCO2)C1CCN(S(=O)(=O)c2ccc(F)cc2)CC1,12.9%
19,CN(CC(=O)N1CCc2ccccc21)S(=O)(=O)c1cccs1,0.707%
20,Cc1ccc(Nc2c(F)c(F)c(F)c(F)c2C(=O)O)c(C)c1,11.9%
21,COc1ccc(CCNC(=O)CSc2nnc3ccc(-c4ccncc4)nn23)cc1,4.18%
22,COc1cc(N2CCCC2)c(OC)cc1/C=C(/C#N)c1ccc(F)cc1,21.5%
23,CCOC(=O)/C=c1\s/c(=C\c2ccccc2C)c(=O)n1CC(=O)NCc1ccc2c(c1)OCO2,4.92%
24,Cc1ccccc1N/C(SCc1cccc(Br)c1)=C(/C#N)C(N)=O,4.93%

# Source: paper PMC4336329 (PLoS ONE, 2015)
